Test results as given in PubChem BioAssay (Tox21).
This list was built around the results that the source calls inconclusive (neither active nor inactive); the mix of calls is not that of the screen. For some assays here: No potency is given beside an inconclusive call; the fits are too rough. The source made the active and inactive calls. Unless noted, calls follow the shape of the dose curve; as a rule, active = well fitted curve in the direction sought with a large enough effect in the repeat runs; inconclusive = weak or mixed curves; inactive = no such curve, though single readings can be large; an effect the other way counts as inactive or inconclusive.

What was measured:
[1] = qHTS assay for small molecules that induce genotoxicity in human embryonic kidney cells expressing luciferase-tagged ATAD5 (AID 651632); also: nearly all actives have a fitted effect of over 15% in size; also: potency is read from the fitted curve at half-maximal effect
Outline: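 Increased luciferase signal from ATAD5-tagged reporter cells indicates DNA-damage-driven ATAD5 induction. HEK293T cells are treated for 16 hr at 37C before detection with Amplite.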

[2] = qHTS assay for small molecule disruptors of the mitochondrial membrane potential - cell viability (AID 720634; calls by dose curve; also: potency is read from the fitted curve at half-maximal effect; nearly all actives have a fitted effect of over 20% in size)
Outline: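 After overnight attachment at 37 C, HepG2 cells received compound or DMSO vehicle for 1 hr. Viability is then taken from ATP-driven luminescence following a 30 min room-temperature CellTiter-Glo step.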

[3] = qHTS assay for small molecule disruptors of the mitochondrial membrane potential (AID 720635); conditions: HepG2 mitochondrial membrane potential, Mito-MPS dye ratio; ratio activity, negative = MMP loss: at 83.2 µM (top of the series) unless noted; also: potency is read from the fitted curve at half-maximal effect
Outline: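 HepG2 cells exposed to compound 1 hr at 37C, then Mito-MPS dye 30 min. Ratio read of aggregate (540/590 nm) versus monomer (490/535 nm) fluorescence.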

[4] = qHTS assay to identify small molecule antagonists of the glucocorticoid receptor (GR) signaling pathway - cell viability counter screen (AID 720693); conditions: GR-bla HeLa viability, CellTiter-Glo luminescence, 18 h, with 5 nM dexamethasone present; viability change, negative = cytotoxic: at 58.5 µM (top of the series); also: nearly all actives have a fitted effect of over 55% in size; also: potency is read from the fitted curve at half-maximal effect; as to viability change, negative = cytotoxic: % is scaled to controls: 0 for no effect and ±100 for the full control effect
[5] = qHTS assay for identifying genotoxic compounds that show differential cytotoxicity against isogenic chicken DT40 cell lines with known DNA damage response pathways - wild type cell line (AID 743012); conditions: DT40 wild type chicken cells viability, CellTiter-Glo, 40 h; activity change, negative = cytotoxicity: at 68.4 µM (top of the series) unless noted; also: nearly all actives have a fitted effect of over 60% in size; also: potency is read from the fitted curve at half-maximal effect
Outline: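 Cells (DT40 wild type, 300/well) are treated with DMSO-dissolved compounds after a ~0.5 h pre-incubation and kept 40 h at 37 C/5% CO2. Viability is then measured by CellTiter-Glo luminescence following 30 min at room temperature.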

[6] = qHTS assay for identifying genotoxic compounds that show differential cytotoxicity against isogenic chicken DT40 cell lines with known DNA damage response pathways - Rev3 mutant cell line (AID 743014); conditions: chicken DT40 Rev3-/- viability, CellTiter-Glo, 40 h; activity, negative = cytotoxicity: at 68.4 µM (top of the series) unless noted; also: nearly all actives have a fitted effect of over 55% in size; also: potency is read from the fitted curve at half-maximal effect
[7] = molecular target: Androgen receptor (Homo sapiens) (UniProt P10275); experiment: qHTS assay to identify small molecule antagonists of the androgen receptor (AR) signaling pathway (AID 743035; active = well fitted inhibition curve with a large enough effect in the signal ratio in the repeat runs, not every such curve was filed as active; inconclusive = weak or mixed curves, or effect the other way; inactive = no such curve, though single readings can be large or run the other way; the % refers to the signal ratio; also: potency is read from the fitted curve at half-maximal effect; as to activity change, negative = inhibition: % is scaled to controls: 0 for no effect and ±100 for the full control effect); conditions: HEK293 AR-UAS-bla, R1881-stimulated, beta-lactamase FRET, 16 h; activity change, negative = inhibition: at 58.5 µM (top of the series) unless noted
Outline: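 Antagonism is scored as loss of R1881-driven beta-lactamase reporter expression in HEK293 cells carrying the reporter under a UAS element, after 16 h co-treatment at 37C and a 2 h room-temperature FRET substrate read.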

[8] = molecular target: Androgen receptor (Homo sapiens) (UniProt P10275); experiment: qHTS assay to identify small molecule agonists of the androgen receptor (AR) signaling pathway (AID 743036; active = well fitted activation curve with a large enough effect in the signal ratio in the repeat runs, with a control signal flat, not every such curve was filed as active; inconclusive = weak or mixed curves, or effect the other way; inactive = no such curve, though single readings can be large or run the other way; the % refers to the signal ratio; also: % is scaled to controls: 0 for no effect and ±100 for the full control effect); conditions: HEK293 AR-UAS-bla GripTite, beta-lactamase FRET ratio, 16 h; activation: at 62.4 µM (top of the series) unless noted
Outline: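 AR-UAS-bla HEK293 cells, plated 4 h before dosing, were treated with compound for 16 h at 37C. beta-Lactamase reporter read after 2 h with LiveBLAzer B/G FRET substrate at room temperature.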

[9] = molecular target: Estrogen receptor (Homo sapiens) (UniProt P03372); experiment: qHTS assay to identify small molecule agonists of the estrogen receptor alpha (ER-alpha) signaling pathway using the BG1 cell line (AID 743079); conditions: BG1Luc4E2 cells, ERE-luciferase agonist, 22 h; activation: at 70.3 µM (top of the series) unless noted; also: nearly all actives have a fitted effect of over 20% in size; also: potency is read from the fitted curve at half-maximal effect
[10] = qHTS assay to identify small molecule antagonists of the estrogen receptor alpha (ER-alpha) signaling pathway using the BG1 cell line (AID 743080; calls by dose curve;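 also: BG1 cells stimulated with 17beta-estradiol alongside compound; potency is read from the fitted curve at half-maximal effect; nearly all actives have a fitted effect of over 25% in size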); conditions: BG1Luc4E2 ERE-luciferase antagonist mode, luminescence; activity change, negative = inhibition: at 70.3 µM (top of the series) unless noted
Outline: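 BG1Luc4E2, endogenous ER-alpha, 4xERE-luc; 5 d charcoal-stripped FBS, phenol red free; 24 h plating; cpd + 17beta-estradiol 21.5 h, 37 C/5% CO2; CellTiter-Fluor viability 30 min, then ONE-Glo luciferase 30 min RT.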

[11] = molecular target: Glucocorticoid receptor (Homo sapiens) (UniProt P04150); experiment: qHTS assay to identify small molecule antagonists of the glucocorticoid receptor (GR) signaling pathway (AID 720692; active = well fitted inhibition curve with a large enough effect in the signal ratio in the repeat runs, not every such curve was filed as active; inconclusive = weak or mixed curves, or effect the other way; inactive = no such curve, though single readings can be large or run the other way; the % refers to the signal ratio; also: potency is read from the fitted curve at half-maximal effect); conditions: GR-bla HeLa, beta-lactamase FRET ratio, dexamethasone-stimulated, 18 h; activity change, negative = inhibition: at 58.5 µM (top of the series) unless noted
Outline: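 Cells plated, rested 4 h at 37 C/5% CO2; compounds in DMSO pin-transferred; dexamethasone added to 5 nM final; 18 h at 37 C; B/G FRET substrate added, 2 h room temperature; fluorescence measured.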

[12] = molecular target: Estrogen receptor (Homo sapiens) (UniProt P03372); experiment: qHTS assay to identify small molecule antagonists of the estrogen receptor alpha (ER-alpha) signaling pathway (AID 743069; active = well fitted curve in the direction sought with a large enough effect in the signal ratio in the repeat runs, not every such curve was filed as active; inconclusive = weak or mixed curves, or effect the other way; inactive = no such curve, though single readings can be large or run the other way; the % refers to the signal ratio; also: potency is read from the fitted curve at half-maximal effect); conditions: HEK293 ER-alpha-UAS-bla, beta-lactamase ratio, antagonist mode; activity, negative = inhibition: at 69.4 µM (top of the series) unless noted
Outline: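 Reporter cells (ER-alpha-bla, HEK293 background) are conditioned overnight in stripped-serum medium (2% charcoal-stripped FBS). Compound and 17beta-estradiol exposure runs 18 hr at 37C, 5% CO2.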

[13] = molecular target: Estrogen receptor (Homo sapiens) (UniProt P03372); experiment: qHTS assay to identify small molecule agonists of the estrogen receptor alpha (ER-alpha) signaling pathway (AID 743075; calls by dose curve;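 also: HEK293 GripTite cells with ER-alpha and UAS-driven beta-lactamase reporter; % is scaled to controls: 0 for no effect and ±100 for the full control effect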); conditions: HEK293 ER-alpha-UAS-bla, beta-lactamase FRET ratio, 18 h; activation: at 70.1 µM (top of the series)
[14] = qHTS assay to identify small molecule antagonists of the estrogen receptor alpha (ER-alpha) signaling pathway using the BG1 cell line - cell viability counter screen (AID 743081); conditions: BG1Luc4E2 viability, CellTiter-Fluor, 22 h; activity change, negative = cytotoxicity: at 70.3 µM (top of the series) unless noted;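 also: compound given together with 17beta-estradiol as the ER stimulus; nearly all actives have a fitted effect of over 45% in size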; also: potency is read from the fitted curve at half-maximal effect
[15] = qHTS assay to identify small molecule antagonists of the androgen receptor (AR) signaling pathway using the MDA cell line - cell viability counter screen (AID 743041; also: % is scaled to controls: 0 for no effect and ±100 for the full control effect; nearly all actives have a fitted effect of over 45% in size); conditions: MDA-kb2 viability, CellTiter-Fluor, 16 h, cells co-treated with R1881 androgen agonist; viability change, negative = cytotoxic: at 70.3 µM (top of the series)
Outline: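 Same-well cytotoxicity was assessed by CellTiter-Fluor in MDA-kb2 AR-luc cells after 16 h of compound treatment under R1881 agonism.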

[16] = qHTS assay to identify small molecule antagonists of the thyroid receptor (TR) signaling pathway - cell viability counter screen (AID 743064); conditions: GH3.TRE-Luc viability, CellTiter-Fluor, 24 h; activity change, negative = cytotoxic: at 70.3 µM (top of the series) unless noted; also: nearly all actives have a fitted effect of over 50% in size; also: potency is read from the fitted curve at half-maximal effect
Outline: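 GH3.TRE-Luc rat pituitary cells dosed after 4 hr plating, co-stimulated with T3 at 1 nM final, incubated 23.5 h at 37 C. Viability measured in the same wells by CellTiter-Fluor fluorescence after 30 min further at 37 C.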

[17] = test system: thyroid hormone receptor (rat, GH3 cells); experiment: qHTS assay to identify small molecule agonists of the thyroid receptor (TR) signaling pathway (AID 743066; calls by dose curve; also: potency is read from the fitted curve at half-maximal effect); conditions: GH3.TRE-Luc cells, TR agonist luciferase, 24 h; activation: at 83.9 µM (top of the series) unless noted
[18] = qHTS assay to identify small molecule antagonists of the estrogen receptor alpha (ER-alpha) signaling pathway - cell viability counter screen (AID 743074; calls by dose curve;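 also: HEK293 cells carrying ER-alpha-UAS-bla reporter stimulated with 17beta-estradiol; % is scaled to controls: 0 for no effect and ±100 for the full control effect; nearly all actives have a fitted effect of over 45% in size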)
Aromatase (Homo sapiens) = Aromatase (Homo sapiens) (UniProt P11511); experiment: qHTS assay to identify aromatase inhibitors (AID 743083); also: potency is read from the fitted curve at half-maximal effect; nearly all actives have a fitted effect of over 55% in size
[19] = qHTS assay to identify small molecule antagonists of the androgen receptor (AR) signaling pathway - cell viability counter screen (AID 743033; also: potency is read from the fitted curve at half-maximal effect; nearly all actives have a fitted effect of over 45% in size); conditions: AR-bla HEK293 viability, CellTiter-Glo luminescence, 16 h; activity change, negative = cytotoxicity: at 58.5 µM (top of the series) unless noted
[20] = qHTS assay to identify aromatase inhibitors - cell viability counter screen (AID 743084); conditions: MCF-7 aro ERE viability, CellTiter-Fluor, 24 h; activity change, negative = cytotoxicity: at 70.3 µM (top of the series) unless noted;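 also: cells stimulated with testosterone during compound exposure; % is scaled to controls: 0 for no effect and ±100 for the full control effect; nearly all actives have a fitted effect of over 55% in size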
[21] = molecular target: Peroxisome proliferator-activated receptor gamma (Homo sapiens) (UniProt P37231); experiment: qHTS assay to identify small molecule agonists of the peroxisome proliferator-activated receptor gamma (PPARg) signaling pathway (AID 743094; active = well fitted activation curve with a large enough effect in the signal ratio in the repeat runs, not every such curve was filed as active; inconclusive = weak or mixed curves, or effect the other way; inactive = no such curve, though single readings can be large or run the other way; the % refers to the signal ratio; also: potency is read from the fitted curve at half-maximal effect); conditions: HEK293H PPARg-UAS-bla, beta-lactamase FRET ratio, 17 h; activation: at 57 µM (top of the series) unless noted
Outline: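 Quantitative HTS agonist mode: stable HEK293H line with UAS-beta-lactamase reporter under PPARg control, 17 h compound exposure at 37C, fluorescence after 1 h FRET substrate loading at room temperature.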

[22] = qHTS assay for small molecule agonists of the p53 signaling pathway (AID 651631; calls by dose curve; also: % is scaled to controls: 0 for no effect and ±100 for the full control effect; nearly all actives have a fitted effect of over 15% in size); conditions: HCT-116 p53RE-bla reporter, beta-lactamase FRET ratio, 16 h; activation: at 73.3 µM (top of the series) unless noted
Outline: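 HCT-116 cells carrying a beta-lactamase reporter under p53 response elements were dosed with compound for 16 h at 37 °C. LiveBLAzer B/G FRET substrate was then added for 2 h at room temperature, and fluorescence intensity was read to detect pathway agonism.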

[23] = qHTS assay to identify small molecule antagonists of the thyroid receptor (TR) signaling pathway (AID 743065)
Outline: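 GH3.TRE-Luc rat pituitary cells (two TREs driving luciferase) were dosed with compound, then stimulated with 1 nM T3 (final) for 23.5 h at 37 C. ONE-Glo luminescence was the read-out, with CellTiter-Fluor fluorescence as the cytotoxicity counter-screen.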

[24] = molecular target: Aryl hydrocarbon receptor (Homo sapiens) (UniProt P35869); experiment: qHTS assay to identify small molecule that activate the aryl hydrocarbon receptor (AhR) signaling pathway (AID 743085);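 also: HG2L7.5c1 human HepG2 liver cells with stably integrated DRE-driven firefly reporter; % is scaled to controls: 0 for no effect and ±100 for the full control effect; nearly all actives have a fitted effect of over 15% in size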
Outline: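 HepG2 cells stably carrying a 20-DRE firefly luciferase reporter (HG2L7.5c1) treated with compound for 24 hr at 37C. Luciferase read by ONE-Glo luminescence, with CellTiter-Fluor viability read first.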

[25] = qHTS assay for small molecule agonists of the p53 signaling pathway - cell viability (AID 651633; calls by dose curve; also: % is scaled to controls: 0 for no effect and ±100 for the full control effect; nearly all actives have a fitted effect of over 30% in size)
Outline: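 p53RE-bla cells were treated with compound for 16 hours at 37 C. Cytotoxicity was then measured as CellTiter-Glo luminescence after 30 min at room temperature.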
Tags tell the direction and shape of the fitted curve or compound fluorescence and quenching.

UniProt P03372, sequence (P03372 whole entry, looked up): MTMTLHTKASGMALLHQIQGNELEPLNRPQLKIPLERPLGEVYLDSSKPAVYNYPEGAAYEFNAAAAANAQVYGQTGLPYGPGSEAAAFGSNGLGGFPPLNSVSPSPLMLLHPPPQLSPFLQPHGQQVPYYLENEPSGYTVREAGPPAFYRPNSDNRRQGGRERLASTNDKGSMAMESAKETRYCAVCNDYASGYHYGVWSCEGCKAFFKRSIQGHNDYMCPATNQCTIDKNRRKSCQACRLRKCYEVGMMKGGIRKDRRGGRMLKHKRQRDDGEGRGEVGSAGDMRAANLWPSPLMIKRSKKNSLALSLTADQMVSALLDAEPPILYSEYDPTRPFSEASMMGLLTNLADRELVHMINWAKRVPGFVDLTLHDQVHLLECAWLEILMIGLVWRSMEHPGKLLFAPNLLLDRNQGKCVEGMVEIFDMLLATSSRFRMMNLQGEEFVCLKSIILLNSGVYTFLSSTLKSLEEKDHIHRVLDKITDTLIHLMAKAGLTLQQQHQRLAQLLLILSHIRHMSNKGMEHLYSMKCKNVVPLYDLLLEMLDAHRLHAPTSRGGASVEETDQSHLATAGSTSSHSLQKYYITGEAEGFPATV
UniProt P37231, sequence (P37231 whole entry, looked up): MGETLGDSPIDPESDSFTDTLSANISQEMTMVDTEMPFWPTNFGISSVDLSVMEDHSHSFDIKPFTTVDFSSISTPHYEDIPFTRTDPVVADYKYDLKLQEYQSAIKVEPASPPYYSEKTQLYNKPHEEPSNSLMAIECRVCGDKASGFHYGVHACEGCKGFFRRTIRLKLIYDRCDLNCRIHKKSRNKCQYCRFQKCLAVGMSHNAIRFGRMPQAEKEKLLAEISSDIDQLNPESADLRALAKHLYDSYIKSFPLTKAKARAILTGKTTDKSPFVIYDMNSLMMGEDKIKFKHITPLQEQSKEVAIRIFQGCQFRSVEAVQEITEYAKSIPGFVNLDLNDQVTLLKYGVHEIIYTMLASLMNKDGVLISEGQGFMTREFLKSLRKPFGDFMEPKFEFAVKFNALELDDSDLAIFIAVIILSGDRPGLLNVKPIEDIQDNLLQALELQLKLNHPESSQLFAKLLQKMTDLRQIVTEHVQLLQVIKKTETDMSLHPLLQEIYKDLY
UniProt P10275, sequence (P10275 whole entry, looked up): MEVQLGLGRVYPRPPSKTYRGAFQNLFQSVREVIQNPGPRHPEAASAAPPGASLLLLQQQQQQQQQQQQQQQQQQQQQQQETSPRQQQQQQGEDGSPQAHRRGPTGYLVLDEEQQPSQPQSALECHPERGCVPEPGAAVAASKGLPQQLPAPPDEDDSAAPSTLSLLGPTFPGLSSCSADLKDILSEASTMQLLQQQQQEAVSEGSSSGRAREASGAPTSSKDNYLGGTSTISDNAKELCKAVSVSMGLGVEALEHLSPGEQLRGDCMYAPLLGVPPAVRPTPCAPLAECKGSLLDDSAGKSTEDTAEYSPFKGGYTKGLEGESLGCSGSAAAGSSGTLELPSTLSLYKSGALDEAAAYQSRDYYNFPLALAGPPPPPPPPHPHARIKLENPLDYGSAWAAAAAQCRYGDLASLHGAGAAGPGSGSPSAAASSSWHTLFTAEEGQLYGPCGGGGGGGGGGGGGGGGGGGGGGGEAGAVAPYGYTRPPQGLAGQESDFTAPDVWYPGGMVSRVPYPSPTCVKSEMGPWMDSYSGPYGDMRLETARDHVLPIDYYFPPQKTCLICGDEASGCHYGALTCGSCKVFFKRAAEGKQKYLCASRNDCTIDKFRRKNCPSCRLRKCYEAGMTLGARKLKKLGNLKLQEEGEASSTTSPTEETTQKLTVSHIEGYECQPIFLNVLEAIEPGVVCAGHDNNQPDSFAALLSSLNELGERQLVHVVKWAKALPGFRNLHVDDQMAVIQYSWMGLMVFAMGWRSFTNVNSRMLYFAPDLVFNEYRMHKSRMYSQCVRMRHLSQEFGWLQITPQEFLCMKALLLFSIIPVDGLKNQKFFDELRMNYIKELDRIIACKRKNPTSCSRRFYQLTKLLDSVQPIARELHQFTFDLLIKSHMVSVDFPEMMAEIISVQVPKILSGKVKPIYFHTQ
UniProt P04150, sequence (P04150 whole entry, looked up): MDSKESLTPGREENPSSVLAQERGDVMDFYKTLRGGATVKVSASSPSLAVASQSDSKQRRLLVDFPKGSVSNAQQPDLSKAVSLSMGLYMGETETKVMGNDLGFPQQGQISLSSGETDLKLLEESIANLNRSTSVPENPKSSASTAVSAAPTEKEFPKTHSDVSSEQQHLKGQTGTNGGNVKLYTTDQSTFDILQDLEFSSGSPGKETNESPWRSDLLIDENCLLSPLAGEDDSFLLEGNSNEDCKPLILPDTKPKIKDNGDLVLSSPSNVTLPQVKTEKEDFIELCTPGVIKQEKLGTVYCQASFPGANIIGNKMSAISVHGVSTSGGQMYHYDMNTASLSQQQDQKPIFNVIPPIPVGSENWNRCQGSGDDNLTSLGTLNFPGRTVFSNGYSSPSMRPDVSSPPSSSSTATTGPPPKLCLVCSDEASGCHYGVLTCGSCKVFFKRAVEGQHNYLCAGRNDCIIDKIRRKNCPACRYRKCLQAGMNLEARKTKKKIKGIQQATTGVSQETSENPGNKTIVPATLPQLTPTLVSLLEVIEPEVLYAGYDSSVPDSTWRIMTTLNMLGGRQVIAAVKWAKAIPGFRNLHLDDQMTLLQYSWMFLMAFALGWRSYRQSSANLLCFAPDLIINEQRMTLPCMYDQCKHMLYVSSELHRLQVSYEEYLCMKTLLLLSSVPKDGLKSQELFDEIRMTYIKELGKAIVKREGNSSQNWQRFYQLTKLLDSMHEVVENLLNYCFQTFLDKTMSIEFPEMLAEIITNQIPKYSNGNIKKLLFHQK
UniProt P35869, sequence (P35869 whole entry, looked up): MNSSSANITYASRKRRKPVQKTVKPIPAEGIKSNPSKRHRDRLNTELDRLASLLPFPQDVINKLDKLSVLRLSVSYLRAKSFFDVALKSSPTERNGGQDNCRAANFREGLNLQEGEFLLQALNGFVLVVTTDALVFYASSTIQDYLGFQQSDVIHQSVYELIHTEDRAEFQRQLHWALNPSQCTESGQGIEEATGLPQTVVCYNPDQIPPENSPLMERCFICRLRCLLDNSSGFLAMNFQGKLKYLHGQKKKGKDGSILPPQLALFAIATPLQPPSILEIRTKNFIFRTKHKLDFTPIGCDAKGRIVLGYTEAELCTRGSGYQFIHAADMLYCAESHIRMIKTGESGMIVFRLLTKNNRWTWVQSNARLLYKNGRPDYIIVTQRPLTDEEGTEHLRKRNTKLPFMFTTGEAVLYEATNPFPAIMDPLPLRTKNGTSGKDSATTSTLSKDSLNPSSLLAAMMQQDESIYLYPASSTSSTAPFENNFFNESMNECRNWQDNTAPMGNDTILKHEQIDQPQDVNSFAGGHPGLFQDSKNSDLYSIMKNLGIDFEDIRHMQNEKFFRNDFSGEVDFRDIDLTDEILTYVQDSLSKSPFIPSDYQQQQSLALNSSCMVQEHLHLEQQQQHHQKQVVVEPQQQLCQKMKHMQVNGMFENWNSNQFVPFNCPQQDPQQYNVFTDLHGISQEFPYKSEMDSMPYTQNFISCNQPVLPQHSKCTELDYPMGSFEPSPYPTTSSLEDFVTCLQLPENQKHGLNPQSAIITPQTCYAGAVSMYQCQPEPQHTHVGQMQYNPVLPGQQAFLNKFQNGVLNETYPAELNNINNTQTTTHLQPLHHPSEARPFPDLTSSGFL
UniProt P11511, sequence (P11511 whole entry, looked up): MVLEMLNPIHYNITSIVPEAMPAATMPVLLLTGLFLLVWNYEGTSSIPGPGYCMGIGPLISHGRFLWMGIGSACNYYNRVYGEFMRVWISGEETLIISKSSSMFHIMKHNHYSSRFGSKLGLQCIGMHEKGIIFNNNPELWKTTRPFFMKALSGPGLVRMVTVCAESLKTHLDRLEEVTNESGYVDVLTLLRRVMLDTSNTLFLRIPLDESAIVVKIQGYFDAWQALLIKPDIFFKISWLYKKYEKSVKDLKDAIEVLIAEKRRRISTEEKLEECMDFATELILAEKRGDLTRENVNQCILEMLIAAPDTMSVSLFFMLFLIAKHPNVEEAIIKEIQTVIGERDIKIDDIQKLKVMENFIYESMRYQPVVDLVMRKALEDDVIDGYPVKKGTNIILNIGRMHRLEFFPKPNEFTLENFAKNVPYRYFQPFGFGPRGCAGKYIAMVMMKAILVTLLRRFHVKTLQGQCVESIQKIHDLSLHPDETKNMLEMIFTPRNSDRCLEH

O=C(Nc1ccc(O)cc1)c1ccccc1O
Potency [1]: inconclusive [activator, partial curve] | Potency [2]: inconclusive [cytotoxic, partial curve, poor fit] | Potency [3]: active: 5.96 µM | Potency [4]: inactive | Potency [5]: inconclusive [rising, single point] | Potency [6]: inconclusive [cytotoxic] | activity change, negative = inhibition [7]: inconclusive: -17.1% | activation [8]: inconclusive: -29.6% | Potency [9]: active: 13.3 µM | Potency [10]: inconclusive [rising, full curve]

C=CC[N+]1([C@H]2C[C@H]3[C@@H]4CC[C@H]5C[C@H](O)[C@@H](N6CCOCC6)C[C@]5(C)[C@H]4CC[C@]3(C)[C@H]2OC(C)=O)CCCC1
Potency [1]: inactive | activity change, negative = inhibition [11]: inconclusive: 38.6% | Potency [5]: inconclusive [rising, partial curve, poor fit] | Potency [12]: inactive | Potency [13]: inactive | Potency [9]: active: 26.6 µM | Potency [14]: inactive

CCCCCCCCCCCCCCCCSCC(COC)COP(=O)([O-])OCC[N+](C)(C)C (centres undefined)
Potency [1]: inconclusive [activator, partial curve, poor fit] | Potency [3]: inconclusive [activator, partial curve, poor fit] | Potency [11]: active: 23.9 µM | Potency [4]: inconclusive [cytotoxic, single point] | Potency [5]: inconclusive [cytotoxic, single point] | Potency [7]: inconclusive [falling, single point] | activation [8]: inconclusive: -2.18% | Potency [15]: inactive | Potency [16]: inconclusive [cytotoxic, partial curve] | Potency [17]: inconclusive [inhibitor, partial curve, poor fit] | Potency [12]: active: 21.3 µM [inhibitor] | Potency [18]: inactive | Potency [14]: inactive | Potency (Aromatase (Homo sapiens)): inconclusive [inhibitor, partial curve, poor fit]

O=C(O)c1cccc(/C=C2/C[C@@H]3[C@@H](/C=C/[C@@H](O)C4CCCCC4)[C@H](O)C[C@@H]3O2)c1
Potency [1]: inactive | Potency [3]: inconclusive [activator, partial curve] | Potency [19]: inconclusive [cytotoxic, full curve] | Potency [7]: inactive | Potency [12]: inactive | Potency [20]: inactive | Potency [21]: inconclusive [activator, partial curve]

O=S(=O)([O][Al])OC[C@H]1O[C@@](COS(=O)(=O)[O][Al])(O[C@H]2O[C@H](COS(=O)(=O)[O][Al])[C@@H](OS(=O)(=O)[O][Al])[C@H](OS(=O)(=O)[O][Al])[C@H]2OS(=O)(=O)[O][Al])[C@@H](OS(=O)(=O)[O][Al])[C@@H]1OS(=O)(=O)[O][Al]
activation [22]: inconclusive: 5.39% | activity change, negative = inhibition [7]: inconclusive: 44.7% | Potency [16]: inconclusive [rising, single point]

CCCC(=O)Nc1ncnc2c1ncn2[C@@H]1O[C@@H]2COP(=O)(O)O[C@H]2[C@H]1OC(=O)CCC
Potency [1]: inconclusive [activator, partial curve, poor fit] | activation [21]: inconclusive: 12.2%

CC(C)(S)C(=O)N[C@@H](CS)C(=O)O
Potency [22]: inactive | Potency [14]: inconclusive [cytotoxic, single point]

CN1[C@@H]2CCC[C@H]1CC(NC(=O)c1nn(C)c3ccccc13)C2 (some centres undefined)
Potency [22]: inactive | Potency [6]: inactive | Potency [16]: inactive | Potency [23]: inconclusive [inhibitor, partial curve, poor fit] | Potency [9]: inactive | Potency [24]: inactive

O=S(=O)(O)Oc1ccc(C(c2ccc(OS(=O)(=O)O)cc2)c2ccccn2)cc1
Potency [25]: inactive | Potency [3]: inconclusive [rising, partial curve, poor fit] | Potency [14]: inconclusive [cytotoxic, single point]

CCOC(=O)Cc1ccc(-c2ccccc2)cc1
Potency [22]: inactive | activity change, negative = cytotoxicity [5]: inconclusive: 9.63% | Potency [16]: inactive | Potency [9]: inactive | Potency [21]: inconclusive [activator, partial curve]
